{"source": "patent US20260199504A1", "about": "(JIANGSU HENGRUI PHARMACEUTICALS, published 2026)", "binders": {"B1": {"name": "ADC-2 (EV201-9-A, n=3.90) (other)", "heavy": "EVQLVESGGGLVQPGGSLRLSCAASGFTFSSYNMNWVRQAPGKGLEWVSYISSSSSTIYYADSVKGRFTISRDNAKNSLSLQMNSLRDEDTAVYYCARAYYYGMDVWGQGTTVTVSSASTKGPSVFPLAPSSKSTSGGTAALGCLVKDYFPEPVTVSWNSGALTSGVHTFPAVLQSSGLYSLSSVVTVPSSSLGTQTYICNVNHKPSNTKVDKRV[letters of human IgG1 Fc omitted]", "light": "DIQMTQSPSSVSASVGDRVTITCRASQGISGWLAWYQQKPGKAPKFLIYAASTLQSGVPSRFSGSGSGTDFTLTISSLQPEDFATYYCQQANSFPPTFGGGTKVEIKRTVAAPSVFIFPPSDEQLKSGTASVVCLLNNFYPREAKVQWKVDNALQSGNSQESVTEQDSKDSTYSLSSTLTLSKADYEKHKVYACEVTHQGLSSPVTKSFNRGEC", "modifications": "drug-linker compound 9-A conjugated after TCEP reduction; average loading n=3.90 for the whole antibody; sites not stated"}}, "biological_target": "T1, Nectin-4 expressed on T47D and MDA-MB-468 human breast cancer cells (human, UniProt Q96NY8 32-510)", "T1 sequence (looked up)": "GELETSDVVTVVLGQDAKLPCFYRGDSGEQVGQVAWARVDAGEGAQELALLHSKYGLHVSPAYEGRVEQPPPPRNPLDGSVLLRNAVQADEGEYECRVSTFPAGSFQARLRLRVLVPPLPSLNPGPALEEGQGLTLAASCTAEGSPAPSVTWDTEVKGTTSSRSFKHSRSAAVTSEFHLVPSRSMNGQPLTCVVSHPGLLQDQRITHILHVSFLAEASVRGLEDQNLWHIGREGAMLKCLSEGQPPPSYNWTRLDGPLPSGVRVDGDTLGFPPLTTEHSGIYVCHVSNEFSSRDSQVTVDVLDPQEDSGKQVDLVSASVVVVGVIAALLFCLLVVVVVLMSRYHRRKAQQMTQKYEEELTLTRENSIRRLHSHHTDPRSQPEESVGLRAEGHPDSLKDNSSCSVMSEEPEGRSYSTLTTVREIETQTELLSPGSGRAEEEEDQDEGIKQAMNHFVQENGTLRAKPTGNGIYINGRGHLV", "assay": "cell-based or functional assay", "data": [{"binder": "B1", "values": [{"measurement": "IC50 (nM), killing of MDA-MB-468 (++) cells, CTG", "result": 152, "unit": "nM"}, {"measurement": "IC50 (nM), killing of T47D (+++) cells, CTG", "result": 193, "unit": "nM"}]}]}
